Results as given in the RNAGym collection of RNA variant scans (doi:10.7554/elife.90254).
Read counts are not given, so values of variants with three or more changes are uncertain.

B1: LINE1-full (parent)
chain: UACGUAGGUGGUUUUCCCCUGAUAGUGCUAAGGGGGCCUGGAAGUUUGGACUGGGCAGAGCUCAACACAGCGUGGCAAAGUGGCUGUGGCUAGACUGCCUCUCUGGAUUCCUCGUCACUCAGCAGGGCAUCUCUGAGAGAAAUGCC

Variants of: B1
Assay: self-cleavage, relative activity (ratio to wild type); higher = more cleavage; in vitro, sequencing; the parent is a self-cleaving ribozyme

Variant | self-cleavage
UACGUAGGAGGUUUUCCCCUGAUAGUGCUAAGGGGGCCUGGAAGUUUGGACUGGGCAGAGCCCUACACAGCGCGGCAAAGUGGCUGUGGCUAGACUGCCUCUCUGGAUUCCUCGUCACUCAGCAGGGCAUCUCUGAGAGAAGUGCC [U9A U62C A64U U73C A142G] | 0.14
UACGUAGGUGGUUUUCCCCUGAUAGUGCUGAGGGGGCCUGGAAGUUUGGACUGGGCAGAGCUCAACACAGCGUGGCAAAGUGGCUGUGGCUGGACUGCCUCUCUGGAUUCCUCGUCACUCAGCAGGGCGUCUCUGAGAGAAAUGCC [A30G A92G A129G] | 0
UACGGAGGUGGUUUUCCCCUGAUAGUGCUAAGGGGGCCUGGAGGUUUGGACUGGGCAGAGCUCAACACAGCGUGGCAUAGUGGCUGUGGCUAGACUGCCUCUCUGGAUUCCUCGUCACUCAGCAGGACAUCACUGAGAGAAAUGCC [U5G A43G A78U G127A U132A] | 2.07
UACGUAGGAGGUUUUCCCCUGAUAGUGCUAAGGGGGCCUGGAAGUUUGGACUGGGCAGAGCUCAACACAGCGUGGCAAAGUGGCUGUGGCUAGACUGCCUCUCUGGAUUCCUCGUCACUCAGCAGGGCAUUUCUGAGAGAGAUGCC [U9A C131U A141G] | 0.88
UACGUAGGUGGUUUUCCCCUGAUAGUGCUAAGGGGGCCUGGAAGUUUGGACUGGGCAGAGCUCUACACGGCGUGGCAAGGUGGCUGUGGCUAGACUGCCUCUCUGGAUUCCUCGUCACUCAGCAGGGCAUCUCUGAGAGAAAUGCC [A64U A69G A79G] | 0.05
UACGUAGGUGGUUCUCCCCUGAUAGUGCUAAGGGGGCCUGGAAGUUUGGACUGGGCAGAGCUCAACACAGCGUGGCAAAGUGGCUGAGGCUAGACUGCUUCUCUGGAUUCCUCGUCACUCAGCAGGGCAUCUCUGGGGGUAAUGCC [U14C U87A C99U A136G A138G A140U] | 0.06
UACGUAGGUGGUUUUCCCCUGAUAGUGCUUAGGGGGCCUGGAAGUUUGGACUGGGCAGAGCUCAACACAGCGUGGCAAAGUGGCUGUGGCUAGACAGCCUCUCUGGAUUCCUCGUCACCCAGCAGGGCAUCUCUGAGAGAAAUGCC [A30U U96A U119C] | 0.03
UACGUAGGUGGUUUUCCCCUGAUGGUGCUAAGGGGGCCUGGAAGUUUGGACUGGGCAGAGCUCAACACAGCGUGGCAAAGUGGCUGUGGCUAGACUGCCUCUCUGGAUUCCUCGUCACUCAGCGGGGCAUCUCUGAGAGGAAUGCC [A24G A124G A140G] | 0.42
UACGUAGGUGGCUUUCCCCUGAUAGUGCUAAGGGGGCCUGGAAGUUUGGACUGGGCAGAGCUCAACACAGCGUGGCAAAGUGGCUGCGGCUAGACUGCCUCUCUGGAUACCUCGUCACUCAGCAGGGCAUCUCUGAGAGAAGUGCC [U12C U87C U109A A142G] | 0
UACGUAGGUGGUUUCCCCCUGAUAGUGCUAAGGGGGCCUGGAAGUUUGGGCUGGGCAGAGCUCAACACAGCGUGGCAAAGUGGCUGUGGCUAGACUGCCUCUCUGGAUCCCUCGUCACCCAGCAGGGCAUCUCUGAGAGAAAUGCC [U15C A50G U109C U119C] | 1.08
UACGUAGGUGGUUUUCCCCUGAUGGUGCUAAGGGGGCCUGGAAGUUUGGACUGGGCAGAGCUCAACACAGCGUGGCAAAGUGGCUGUGGCUAGACUGCCUCUCUGGAAUCCUCGUCACUCAGCAGGGCAUCUCUGAGAGAAACGCC [A24G U108A U143C] | 1.03
UACGUAGGUGGUUUUCCCCUGAUAGUGCUAAGGGGGCCUGGAAGUUUGGACUGGGCAGAGCUCAACACGGCGUGGCAAAGUGGCUGUGGCUAGACUGCCUCUCUGGAUUCCUCGUCACUCAGCAGGGCAACUCUGAGAGAAACGCC [A69G U130A U143C] | 0.96
UACGUAGGUGGUUUUCCCCUAAUAGUGCCUAGGGGGCCUGGAUGUUUGGACUGGGCAGAGCCCAACACAGCGUGGCAAAGUGGCUGUGGCUAGACUGCCUCUCUGGAUUCCUCGUCACUCAGCAGGGCAUCUCUGUGAGAAAUGCC [G21A U29C A30U A43U U62C A136U] | 0.07
UACGCGGGUGGUGUUCCCCUGAUAGUGCUAAGGGGGCCUGGAAGUUCGGACUGGGCAGAGCCCAACACAGCGUGGCAAAGUGGCUGUGGCUAGACUGCCUCUCUGGAUUCCUCGUCACUCAGCAGGGCAUCUCUGAGAGAAAUGCC [U5C A6G U13G U47C U62C] | 0
UACGUAGGUGGUCUACCCCUGAUAGUGCUAAGGGGGCCUGGAAGCUUGGACUAGGCAGAGCUCAACACAGCGUGGCAAAGUGGCUGUGGCUAGACUGCCUCUCUGGAUUCCUCGUCACUCAGCAGGGCAUCUCUGAGAGAAAUGCC [U13C U15A U45C G53A] | 0.48
UACAUAGGUGGUUUUCCCCUGAUAGUGCUAAGGGGGCCUGGAAGUUUGGACUGGGCAGAGCUCAACACAGCGUGGCAAAGUGGCUGUGGCUAGUCUGCCUCUCUGGAUUCCUCGUCACUCAGUGGGGCAUCUCUGAGAGAAAUGCC [G4A A94U C123U A124G] | 0.32
UACGUACGUGGUCUUCCCCUGAUAGUGCUAAGGGGGCCUGGAAGUUUGGACUGGGCAGAGCUCAACACAGCGUGGCAAAGUGGCUAUGGCUAGACUGCCUCUCUGGAUUCCUCGACACUCAGCAGGGCAUCUCUGAGAGAAAUGCC [G7C U13C G86A U115A] | 0.28
UACGUAGGUGGUUUUCCCCUGAUAGAGCUAAGGGGGCCUGGAAGUUUGGACUGGGCAGAGCUCAACACAGCGUGGCAGAGUGGCUGUGGCUAGACUGCCUCUCUGGAUUCCUCGUCACUCAGCAGGGCAACUCUGAGAGAAAUGCC [U26A A78G U130A] | 0.64
UACGUAGGUGGUUUUCCCCUGAUAGUGCUAAGGGGGCCUGGAAGUUUGGACUGGGCAGAGCUCAACGCAGCGUGGCAAAGUGGCUGUGGCUAGGCUGCCUCUCAGGAUUCCUCGUCACUCCGCAGGGCAUCUCUGAGAGAAAUGCC [A67G A94G U104A A121C] | 0
UACGUAGGUGGUCUUCCCCUGAUAGUGCUAAGGGGGCCUGGAAGUUUGGACUGGGCAGAGCUCACCACAGCGAGGCAAAGUGGCUGUGGCUAGACUGCCUCUCUGGAUUCCUCGUCACUCAGCAGGGCAUCUCUGAGAGAAAUGCC [U13C A65C U73A] | 0.15

Variant | self-cleavage
UACGUAGGUGGUCUUCCCCUGAUAGUGCUAAGGGGGCCAGGAAGUAUGAACUGGGCAGAGCUCAACACAGCGUGGCAAAGUGGCUGUGGCUAGACUGCCUCUCUGGAUUCCUCGUCACUCAGCAGGGCAUCUCUGAGAGAAAUGCC [U13C U39A U46A G49A] | 1.13
UACGUAGGUGGUUUUCCCCUGAUAGUGCUAAGGGGGCCUGGAAGUUUGGACUGGGCAGAGCUCAGCACAGCGUGGCAAAGUGGCUGUGGCUAGACUGCCUCUCUUAAUUCCUCGUCACUCAGCAGGGCAUCUCUGAGAGAGAUGCC [A65G G105U G106A A141G] | 0.03
UACGUAGGUGGUUUUCCCCUGAUAGUACUAAGGGGGCCUGGAAGUUUGGACUGGGCAGAGCUCAACACAGCGUGGCAAAGUGGCUGUGGCUAGACUGCCUCUCUGGGUUCCUCGUCACUCAGCAGGGCAUCCCUGAGAAAAAUGCC [G27A A107G U132C G139A] | 1.02
UACGUAGGUGGUCUUCCCCUGAUAGUGCUAAGGGGGCCUGGAAGUUUGGACUGGGCAGAGCUCAACACAGCGUGGCAAAGUGGCCGUGGCUAGACUGCCUCUCUGGAUUCCUCGACACUCAGCAGGGCAUCUCUGAGAGAAAUGCC [U13C U85C U115A] | 0.19
UACGUAGGUGAUUUUCCCCUGAUAGUGCUAAGGGGGCCUGGAAGUUUGGACUGGGCAGAGCUCAACACUGCGUGGCAAAGUGGCUGUGGCUAGACUGCCUCUCUGGAUUCCUCGUCACUCAGCAGGGCAUCUCUGAGUGAAAUGCC [G11A A69U A138U] | 0.09
UACGUAGGUGGUUUUCCCCCGAUAGUGCUAAGGGGGCCUGGAAGUUUGGACUGGGCAGAGCUCAACACAGCGUGGCAAAGUGGCUGUGGCUAGACUGCCACUCUGGAUUCCUCGUCACUCAGCAGGGCCUCUCUGAGAGAAAUGCC [U20C U100A A129C] | 1.08
UACGUAGGUGGUUUUCCCCUGAUAGAGCUAAGGGGGCCUGGAAGUUUGGACUGGGCAGAGCUCAACACAGCGUGGCAAAGCGGCUGUGGCUAGUCUGCCUCUCCGGAUUCCUCGUCACUCAGCAGGGCAUCUCUGAGAGAAAUGCC [U26A U81C A94U U104C] | 1.15
UACGUAGGUGGUUUUCCCCUGAUAGUGCUAAGGGGGCCUGGAAGUUUGGACUGGGCAGAGCUCAACACAGCGUGGCAAAGUGGCUGUGGCUAGACUGCCUCUCUGGACUCCUCGUCACUCAGCAGGGCAUCUCAGGGAGAAAUGCC [U108C U134A A136G] | 1.56
UACGUAGGUGGUUUUCCCCUGAUAGCGCUAAGGGGGCCUGGAAGUUUGGACUGGGCAGAGCUCAACACAGCGUGGCAAAGUGGCUGUGGCUAGACUGCCUCUCUGGAUUCCUCGUUACUCAGCAGGGCAUCUCUGAGAGAAUUGCC [U26C C116U A142U] | 1.22
UACGUAGGUGGUUCUCCCCUGAUAUUGCUAAGGGGGCCUGGAAGUUUGGACUGGGCAGAGCUCAACACAGCGUGGCAAAGUGGCUGUGGCUAGACUGCCUCUCUGGAUUCCUCGUCACUCAGCAGGGCAUCCCUGAGAGAAAUGCC [U14C G25U U132C] | 1.11
UACGUAGGUGGUCUUCCCCUGAUAGUGCUAAGGGGGCCUGGAAGUUUGGACUGGGCAGAGCUCAACACAGCGUGGCAAAGUGGCUGAGGCUAGACUGCCUCUCUGGAUUCCUCGUCACUCAGUAGGGCAUCUCUGAGAGAAAUGCC [U13C U87A C123U] | 0.13
UACGUAGGUGGUUUUCCCCAGAUAGUGCUAAGGGGGCCUGGAAGUUUGGACUGGGCAGAGCUCAACACAGCGUGGCAAAGUGGCUGUGGCUAGACUGCCUCUCUGGAUUCCUCGUCACCCAGCAGGGCUUCUCUGAGAGAAAUGCC [U20A U119C A129U] | 1.9
UACGUAGGUGGUGUUCCCCUGAUAGUGCUAAGGGGGCCUGGAAGUUUGGACUGGGCAGAGCUCAACACAGCGUGGCAAAGUGGCUAUGGCUAGACUGCCCCUCUGGAUUCCUCGUCACUCAGCAGGGCAUCUCUGAGAGAAAUGCC [U13G G86A U100C] | 0.19
UACGUAAGUGGUUCUCCCCUGAUAGUGCUAAGGGGGCCUGGAAGUUUGGACUGGGCAGAGCUCAACACAGCGUGGCAAAGUGGCUGUGGAUAGACGGCCUCUCUGGAUUCCUCGUCACUCAGCAGGGCAUCUCUGAGGGAAAUGCC [G7A U14C C90A U96G A138G] | 0.1
UACGUAGGUGGUAUUCCCCUGACAGUGCUAAGGGGGCCUGGAAGUUUGGACUGGGCAGAGCUCAACACAGCGUGGCAGAGUGGCUGUGGCUAGGCUGCCUCUCUGGAUUCCUCGUCACUCAGCAGGGCAUCUCUGGGAGAAAUGCC [U13A U23C A78G A94G A136G] | 0
UACGUAGGUGGUUUUCCCCUGAUAGUGCUAAGGGGGCCUGGAAGAUUGGACCGGGCAGAGCUCAACACAGCUUGGCAAAGUGGCUGUGGCUAGACUGCCUCUCUGGAUUCCUCGUCACUCAGCAGGGCAUCUCUGAGAGGAAUGCC [U45A U52C G72U A140G] | 0
UACGUAGGUGGUUUUCCCCUGUUAGUGCUAAGGGGGCCUGGAAGUUUGGACUGGGCAGAGCUCAACACAGCGUGGCAAAGUGGCUGUGGCUAGACUGCCUCUCUGGAUUCCUCGCCACUCAGCAGGGUAUCUCUGAGAGAAAUGCC [A22U U115C C128U] | 1.14
UACGUAGGUGGUUUCCCCCUGAUAGUGCUAAGGGGGCCUGGAAGCUUGGACUGGGCAGAGCUCAACACAGCGUGGCAAAGUGGCUGUGGCUAGACUGCCUCUCUGGAUUCCUCGUCACUCAGCAGGGCCUAUCUGAGAGAAAUGCC [U15C U45C A129C C131A] | 1.65
UACGUAGGUGGUUUUCCCCUGAUAGUGCUAAGGGGGCCUGGAAGUUUGGACUGGGCAGAGUUCAACACAGCGUGGCAAAGUGGCUGGGGCUAGACUGCCUCUCUGGAUUCCUCGUCACUCAGCAGGGCAUCCCUGAGAGAAAUGCC [C61U U87G U132C] | 0.08
